Data taken from US20250188166A1 (BRIGHT PEAK THERAPEUTICS, published 2025).
Read-outs that look alike come from different tables or passages of the source.

Columns and labels:
[1] = molecular target: T1, IL-18R on HEK-Blue IL18R reporter cells (UniProt Q13478 19-541; O95256 20-599); assay: cell-based or functional assay
T1 sequence (looked up) 1: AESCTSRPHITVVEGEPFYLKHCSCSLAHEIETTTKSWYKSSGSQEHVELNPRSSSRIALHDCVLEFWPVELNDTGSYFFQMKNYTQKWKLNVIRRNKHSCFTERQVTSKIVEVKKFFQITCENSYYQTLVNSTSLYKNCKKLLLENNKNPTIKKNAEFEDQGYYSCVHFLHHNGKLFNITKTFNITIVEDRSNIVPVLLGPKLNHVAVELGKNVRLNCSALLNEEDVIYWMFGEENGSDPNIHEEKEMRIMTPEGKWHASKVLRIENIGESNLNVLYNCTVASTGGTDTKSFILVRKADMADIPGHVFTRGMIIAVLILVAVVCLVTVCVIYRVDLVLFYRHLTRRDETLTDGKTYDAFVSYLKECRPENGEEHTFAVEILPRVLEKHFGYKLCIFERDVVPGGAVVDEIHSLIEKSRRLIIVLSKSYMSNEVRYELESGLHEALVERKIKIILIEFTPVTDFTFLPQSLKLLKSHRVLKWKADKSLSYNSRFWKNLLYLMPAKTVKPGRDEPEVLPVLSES
T1 sequence (looked up) 2: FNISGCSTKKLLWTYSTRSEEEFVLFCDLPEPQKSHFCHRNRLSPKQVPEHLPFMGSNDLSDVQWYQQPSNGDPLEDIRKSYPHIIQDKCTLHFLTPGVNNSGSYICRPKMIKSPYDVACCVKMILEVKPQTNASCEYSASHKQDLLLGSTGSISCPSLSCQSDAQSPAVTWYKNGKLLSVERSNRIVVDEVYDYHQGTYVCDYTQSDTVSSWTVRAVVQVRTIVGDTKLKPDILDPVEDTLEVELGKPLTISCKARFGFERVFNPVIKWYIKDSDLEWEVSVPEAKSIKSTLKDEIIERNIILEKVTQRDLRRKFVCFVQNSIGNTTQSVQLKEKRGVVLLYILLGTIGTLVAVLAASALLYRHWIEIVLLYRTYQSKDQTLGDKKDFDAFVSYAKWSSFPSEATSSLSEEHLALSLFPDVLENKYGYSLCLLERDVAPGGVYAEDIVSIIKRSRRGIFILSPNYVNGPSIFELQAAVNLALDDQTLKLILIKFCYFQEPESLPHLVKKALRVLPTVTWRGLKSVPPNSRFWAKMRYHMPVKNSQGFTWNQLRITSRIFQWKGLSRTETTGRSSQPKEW

[2] = molecular target: T2, Biotinylated Recombinant Human PD-1/CD279-Fc Chimera (human, UniProt Q15116 fragment, biotinylated); assay: ELISA: immunocytokine coated on the plate (5 µg/ml), biotinylated human PD-1-Fc titrated (x-axis), streptavidin-HRP/TMB, 450 nm
T2 construct: Bought (Biolegend #789406); also called recombinant biotinylated human PD-1

His-tagged human PD1 [3] = molecular target: T3, His-tagged human PD1 (human, UniProt Q15116 fragment); assay: BLI (Octet); antibody on AHC sensor, His-tagged human PD1 as analyte
T3 construct: Bought (R&D #8986-PD)

[4] = molecular target: T4, recombinant Human Fc gamma RIIIA/CD16a Protein (human, UniProt P08637 fragment, limits assumed); assay: ELISA; antibody coated, His-tagged receptor titrated
T4 construct: also called FcγRIIIa (CD16)

[5] = molecular target: T5, recombinant Human Fc gamma RI/CD64 Protein (human, UniProt P12314 16-288); assay: as above
T5 construct: also called FcγRI/(CD64); human Fc gamma receptor I

[6] = molecular target: T6, recombinant Human Fc gamma RIIA/CD32a (H167) Protein (human, UniProt P12318 36-218, limits assumed); assay: as above
T6 construct: also called FcγRIIa (CD32a)
T6 sequence (looked up): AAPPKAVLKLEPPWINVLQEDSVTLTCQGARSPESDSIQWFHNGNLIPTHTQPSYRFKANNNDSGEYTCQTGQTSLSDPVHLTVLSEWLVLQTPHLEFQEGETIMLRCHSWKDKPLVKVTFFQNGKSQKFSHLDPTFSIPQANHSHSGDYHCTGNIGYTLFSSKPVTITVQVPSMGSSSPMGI

[7] = molecular target: T7, recombinant Human Fc gamma RIIB/CD32b Avi-tag Protein (human, UniProt P31994 46-217); assay: as above
T7 construct: also called FcγRIIb (CD32b)
T7 sequence (looked up): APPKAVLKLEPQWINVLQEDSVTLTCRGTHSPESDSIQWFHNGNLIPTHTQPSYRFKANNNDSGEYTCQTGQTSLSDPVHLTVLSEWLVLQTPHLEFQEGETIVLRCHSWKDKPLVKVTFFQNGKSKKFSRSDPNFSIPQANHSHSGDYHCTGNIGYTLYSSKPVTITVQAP

[8] = molecular target: T2, Biotinylated Recombinant Human …; assay: ELISA; antibody coated, biotinylated human PD-1-Fc titrated
[9] = molecular target: human PD-1 on Jurkat T cells (human, UniProt Q15116 25-288); assay: cell-based or functional assay
[10] = molecular target: T5, recombinant Human Fc gamma RI/CD64 …; assay: ELISA: immunocytokine coated (2.5 µg/ml), His-tagged recombinant human FcγRI/CD64 titrated (x-axis), anti-His-HRP/TMB, 450 nm
[11] = molecular target: T1, IL-18R on HEK-Blue IL18R reporter cells; assay: cell-based or functional assay; remark: listed apart in the source
His-tagged human PD1 [12] = molecular target: T3, His-tagged human PD1; assay: BLI (Octet); antibody on AHC sensor, His-tagged human PD1 as analyte; remark: listed apart in the source
[13] = molecular target: T2, Biotinylated Recombinant Human …; assay: ELISA; antibody coated, biotinylated human PD-1-Fc titrated; remark: listed apart in the source

T3 sequence (Q15116 25-167 limits assumed): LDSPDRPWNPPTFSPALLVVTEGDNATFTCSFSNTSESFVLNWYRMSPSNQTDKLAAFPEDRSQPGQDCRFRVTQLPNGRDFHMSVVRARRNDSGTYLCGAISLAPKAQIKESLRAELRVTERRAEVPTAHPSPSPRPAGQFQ
T5 sequence (P12314 16-288 limits assumed): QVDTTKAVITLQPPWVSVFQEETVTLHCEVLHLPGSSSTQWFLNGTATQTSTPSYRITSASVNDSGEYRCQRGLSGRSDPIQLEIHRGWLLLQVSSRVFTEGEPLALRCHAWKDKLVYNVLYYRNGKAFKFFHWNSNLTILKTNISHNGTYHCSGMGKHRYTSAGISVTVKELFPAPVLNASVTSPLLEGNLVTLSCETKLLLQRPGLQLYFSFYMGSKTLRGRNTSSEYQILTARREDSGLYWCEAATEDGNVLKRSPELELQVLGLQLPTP
T4 sequence (P08637 17-208 limits assumed): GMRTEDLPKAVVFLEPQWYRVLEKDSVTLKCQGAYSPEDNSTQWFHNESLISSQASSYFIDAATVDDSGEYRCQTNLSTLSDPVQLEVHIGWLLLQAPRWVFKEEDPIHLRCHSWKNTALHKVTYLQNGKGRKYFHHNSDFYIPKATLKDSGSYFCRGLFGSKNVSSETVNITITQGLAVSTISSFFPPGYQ

B1: IL-18 polypeptide SEQ ID NO: 39 (E06K, K53A) (ligand)
chain: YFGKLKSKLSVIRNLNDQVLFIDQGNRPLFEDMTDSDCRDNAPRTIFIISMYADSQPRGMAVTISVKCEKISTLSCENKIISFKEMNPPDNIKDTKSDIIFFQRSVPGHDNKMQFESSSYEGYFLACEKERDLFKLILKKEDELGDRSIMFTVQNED
[1]
  EC50, HEK-Blue IL18R SEAP reporter: 0.00072 nM

B2: Composition A (LZM-009 conjugated to IL-18 polypeptide SEQ ID NO: 30) (other)
heavy: QVQLVQSGAEVKKPGASVKVSCKASGYTFTSYYMYWVRQAPGQGLEWMGGVNPSNGGTNFNEKFKSRVTITADKSTSTAYMELSSLRSEDTAVYYCARRDYRYDMGFDYWGQGTTVTVSSASTKGPSVFPLAPCSRSTSESTAALGCLVKDYFPEPVTVSWNSGALTSGVHTFPAVLQSSGLYSLSSVVTVPSSSLGTKTYTCNVDHKPSNTKVDKRV[human IgG4 Fc with S228P (EU numbers) omitted]
light: EIVLTQSPATLSLSPGERATISCRASKGVSTSGYSYLHWYQQKPGQAPRLLIYLASYLESGVPARFSGSGSGTDFTLTISSLEPEDFATYYCQHSRELPLTFGTGTKVEIKRTVAAPSVFIFPPSDEQLKSGTASVVCLLNNFYPREAKVQWKVDNALQSGNSQESVTEQDSKDSTYSLSSTLTLSKADYEKHKVYACEVTHQGLSSPVTKSFNRGEC
chain: YFGKLKSKLSIIRNLNDQVLFIDQGNRPLFEDMTDSDARDNAPRTIFIISMYADSQPRGMAVAISVKCEKISTLSAENKIISFKEMNPPDNIKDTKSDIIFFQRSVPGHDNKMQFESSSYEGYFLAAEKERDLFKLILKKEDELGDRSIMFTVQNED
modifications: chemically linked to antibody Fc K248; point of attachment in the exemplary protocol is C68; chemical linker to the IL-18 polypeptide on residue K248 of the Fc region (EU numbering) of one heavy …
[2]
  EC50 (read off the curve): ~0.07 nM
His-tagged human PD1 [3]
  Kd: 11.5 nM
  koff: 0.00479 s⁻¹
  kon: 454000 M⁻¹ s⁻¹
[4]
  Kd: 598 nM
[5]
  Kd: 0.25 nM
[6]
  Kd: 1890 nM
[7]
  Kd: 436 nM
[8]
  Kd: 0.0467 nM
[9]
  EC50 (read off the curve): ~3 nM
[10]
  EC50 (read off the curve): ~0.3 nM

B3: CMP2002 (other)
heavy: B2 heavy
light: YFGKLKSKLSIIRNLNDQVLFIDQGNRPLFEDMTDSDARDNAPRTIFIISMYADSQPRGMAVAISVKCEKISTLSAENKIISFKEMNPPDNIKDTKSDIIFFQRSVPGHDNKMQFESSSYEGYFLAAEKERDLFKLILKKEDELGDRSIMFTVQNEDGGGGSGGGGSGGGGSEIVLTQSPATLSLSPGERATISCRASKGVSTSGYSYLHWYQQKPGQAPRLLIYLASYLESGVPARFSGSGSGTDFTLTISSLEPEDFATYYCQHSRELPLTFGTGTKVEIKRTVAAPSVFIFPPSDEQLKSGTASVVCLLNNFYPREAKVQWKVDNALQSGNSQESVTEQDSKDSTYSLSSTLTLSKADYEKHKVYACEVTHQGLSSPVTKSFNRGEC
notes: expressed in CHO K1 cells
[11]
  EC50 (read off the curve): ~0.08 pM
His-tagged human PD1 [12]
  Kd: 39 nM
  koff: 0.00895 s⁻¹
  kon: 230000 M⁻¹ s⁻¹
[13]
  Kd: 0.0702 nM
